# Measured values as given in the supplement of paper PMC8728848.
# This is one part of the list.
# How the values were obtained:
# Test in all cases: glycan array binding signal (z-score within array); higher = stronger binding
# Details in all cases: glycan notation: IUPAC condensed, linker removed
# Gal(a1-3)Gal = target: Gal(a1-3)Gal
# Summary of the method: (§1)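 The binding signal is a Z-score computed within each array. Data were drawn from 3228 arrays in the Consortium for Functional Glycomics database, restricted to those with a known protein sequence. Scores were averaged over arrays of the same protein sequence at different concentrations or buffers, and over linkers, and negative values can be taken as non-binding.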
# Gal(a1-3)Gal(b1-3)GlcNAc = target: Gal(a1-3)Gal(b1-3)GlcNAc
# Summary of the method: as §1
# [1] = target: Gal(a1-3)Gal(b1-3)GlcNAc(b1-2)Man
# Summary of the method: as §1
# [2] = target: Gal(a1-3)Gal(b1-3)GlcNAc(b1-2)Man(a1-3)[Gal(a1-3)Gal(b1-3)GlcNAc(b1-2)Man(a1-6)]Man(b1-4)GlcNAc(b1-4)GlcNAc
# Summary of the method: as §1
# [3] = target: Gal(a1-3)Gal(b1-3)GlcNAc(b1-3)GalNAc
# Summary of the method: as §1
# [4] = target: Gal(a1-3)Gal(b1-3)GlcNAc(b1-6)GalNAc
# Summary of the method: as §1
# [5] = target: Gal(a1-3)Gal(b1-3)[Fuc(a1-4)]GlcNAc(b1-2)Man(a1-3)[Gal(a1-3)Gal(b1-3)[Fuc(a1-4)]GlcNAc(b1-2)Man(a1-6)]Man(b1-4)GlcNAc(b1-4)GlcNAc
# Summary of the method: as §1
# Gal(a1-3)Gal(b1-4)Glc = target: Gal(a1-3)Gal(b1-4)Glc
# Summary of the method: as §1
# Gal(a1-3)Gal(b1-4)GlcNAc = target: Gal(a1-3)Gal(b1-4)GlcNAc
# Summary of the method: as §1
# [6] = target: Gal(a1-3)Gal(b1-4)GlcNAc(b1-2)Man
# Summary of the method: as §1
# [7] = target: Gal(a1-3)Gal(b1-4)GlcNAc(b1-2)Man(a1-3)[Gal(a1-3)Gal(b1-4)GlcNAc(b1-2)Man(a1-6)]Man(b1-4)GlcNAc(b1-4)GlcNAc
# Summary of the method: as §1
# [8] = target: Gal(a1-3)Gal(b1-4)GlcNAc(b1-3)GalNAc
# Summary of the method: as §1
# [9] = target: Gal(a1-3)Gal(b1-4)GlcNAc(b1-6)GalNAc
# Summary of the method: as §1
# [10] = target: Gal(a1-3)Gal(b1-4)[Fuc(a1-3)]GlcNAc
# Summary of the method: as §1
# [11] = target: Gal(a1-3)Gal(b1-4)[Fuc(a1-3)]GlcNAc(b1-2)Man(a1-3)[Gal(a1-3)Gal(b1-4)[Fuc(a1-3)]GlcNAc(b1-2)Man(a1-6)]Man(b1-4)GlcNAc(b1-4)GlcNAc
# Summary of the method: as §1
# Gal(a1-3)GalNAc = target: Gal(a1-3)GalNAc
# Summary of the method: as §1
# [12] = target: Gal(a1-3)[Gal(a1-4)]Gal(b1-4)GlcNAc
# Summary of the method: as §1
# [13] = target: Gal(a1-4)Gal(b1-3)GlcNAc(b1-2)Man(a1-3)[Gal(a1-4)Gal(b1-3)GlcNAc(b1-2)Man(a1-6)]Man(b1-4)GlcNAc(b1-4)GlcNAc
# Summary of the method: as §1
# Gal(a1-4)Gal(b1-4)Glc = target: Gal(a1-4)Gal(b1-4)Glc
# Summary of the method: as §1
# Gal(a1-4)Gal(b1-4)GlcNAc = target: Gal(a1-4)Gal(b1-4)GlcNAc
# Summary of the method: as §1
# [14] = target: Gal(a1-4)Gal(b1-4)GlcNAc(b1-2)Man(a1-3)[Gal(a1-4)Gal(b1-4)GlcNAc(b1-2)Man(a1-6)]Man(b1-4)GlcNAc(b1-4)GlcNAc
# Summary of the method: as §1
# [15] = target: Gal(a1-4)Gal(b1-4)GlcNAc(b1-3)Gal(b1-4)Glc
# Summary of the method: as §1
# Gal(a1-4)GlcNAc = target: Gal(a1-4)GlcNAc
# Summary of the method: as §1
# Gal(a1-6)Glc = target: Gal(a1-6)Glc
# Summary of the method: as §1
# Gal(b1-2)Gal = target: Gal(b1-2)Gal
# Summary of the method: as §1
# Gal(b1-3)Gal = target: Gal(b1-3)Gal
# Summary of the method: as §1
# Gal(b1-3)Gal(b1-4)GlcNAc = target: Gal(b1-3)Gal(b1-4)GlcNAc
# Summary of the method: as §1
# Gal(b1-3)GalNAc = target: Gal(b1-3)GalNAc
# Summary of the method: as §1
# [16] = target: Gal(b1-3)GalNAc(a1-3)[Fuc(a1-2)]Gal(b1-4)Glc
# Summary of the method: as §1
# [17] = target: Gal(b1-3)GalNAc(a1-3)[Fuc(a1-2)]Gal(b1-4)GlcNAc
# Summary of the method: as §1
# Gal(b1-3)GalNAc(b1-3)Gal = target: Gal(b1-3)GalNAc(b1-3)Gal
# Summary of the method: as §1
# [18] = target: Gal(b1-3)GalNAc(b1-3)Gal(a1-4)Gal(b1-4)Glc
# Summary of the method: as §1
# [19] = target: Gal(b1-3)GalNAc(b1-4)Gal(b1-4)Glc
# Summary of the method: as §1
# [20] = target: Gal(b1-3)GalNAc(b1-4)[Neu5Ac(a2-3)]Gal(b1-4)Glc
# Summary of the method: as §1
# Gal(b1-3)GlcNAc = target: Gal(b1-3)GlcNAc
# Summary of the method: as §1
# [21] = target: Gal(b1-3)GlcNAc(a1-3)Gal(b1-4)GlcNAc
# Summary of the method: as §1
# [22] = target: Gal(b1-3)GlcNAc(a1-6)Gal(b1-4)GlcNAc
# Summary of the method: as §1
# Gal(b1-3)GlcNAc(b1-2)Man = target: Gal(b1-3)GlcNAc(b1-2)Man
# Summary of the method: as §1
binder,measurement,setting,value
"HML-Native (Hypnea musciformis), P84871 (protein) QKFCTLDIAPVCCQIVIGGGMYTAGNACMCEGFVSGVGRCENPKECPCTREAQIPSCCSSRWGLVSVTGKCACDCLGGTVAFPEPCPSPY",glycan array binding signal (z-score),Gal(a1-3)Gal,-0.255
same,glycan array binding signal (z-score),Gal(a1-3)Gal(b1-3)GlcNAc,-0.249
same,glycan array binding signal (z-score),[1],-0.28
same,glycan array binding signal (z-score),[2],-0.026
same,glycan array binding signal (z-score),[3],-0.311
same,glycan array binding signal (z-score),[4],-0.31
same,glycan array binding signal (z-score),[5],-0.184
same,glycan array binding signal (z-score),Gal(a1-3)Gal(b1-4)Glc,-0.238
same,glycan array binding signal (z-score),Gal(a1-3)Gal(b1-4)GlcNAc,-0.241
same,glycan array binding signal (z-score),[6],-0.264
same,glycan array binding signal (z-score),[7],0.092
same,glycan array binding signal (z-score),[8],-0.239
same,glycan array binding signal (z-score),[9],-0.32
same,glycan array binding signal (z-score),[10],-0.33
same,glycan array binding signal (z-score),[11],-0.061
same,glycan array binding signal (z-score),Gal(a1-3)GalNAc,-0.183
same,glycan array binding signal (z-score),[12],-0.27
same,glycan array binding signal (z-score),[13],-0.05
same,glycan array binding signal (z-score),Gal(a1-4)Gal(b1-4)Glc,-0.029
same,glycan array binding signal (z-score),Gal(a1-4)Gal(b1-4)GlcNAc,-0.178
same,glycan array binding signal (z-score),[14],0.011
same,glycan array binding signal (z-score),[15],-0.211
same,glycan array binding signal (z-score),Gal(a1-4)GlcNAc,-0.254
same,glycan array binding signal (z-score),Gal(a1-6)Glc,-0.261
same,glycan array binding signal (z-score),Gal(b1-2)Gal,-0.247
same,glycan array binding signal (z-score),Gal(b1-3)Gal,-0.173
same,glycan array binding signal (z-score),Gal(b1-3)Gal(b1-4)GlcNAc,-0.348
same,glycan array binding signal (z-score),Gal(b1-3)GalNAc,-0.245
same,glycan array binding signal (z-score),[16],-0.277
same,glycan array binding signal (z-score),[17],-0.299
same,glycan array binding signal (z-score),Gal(b1-3)GalNAc(b1-3)Gal,-0.308
same,glycan array binding signal (z-score),[18],-0.12
same,glycan array binding signal (z-score),[19],-0.187
same,glycan array binding signal (z-score),[20],-0.318
same,glycan array binding signal (z-score),Gal(b1-3)GlcNAc,-0.171
same,glycan array binding signal (z-score),[21],-0.285
same,glycan array binding signal (z-score),[22],-0.32
same,glycan array binding signal (z-score),Gal(b1-3)GlcNAc(b1-2)Man,-0.116
